According to PubChem BioAssay AID2100 (National Center for Advancing Translational Sciences (NCATS), 2009):
Several values for one entry are separate records, joined by “and”; a condition that tells them apart may be missing. Equal values may be shown once. The campaign covered roughly 300,000 compounds. About 1,200 (0.4%) were called active. Inconclusive means that the source gave no clear call. Such entries were picked first, then a sample of the others. Calls come from the whole dose curve; as a rule, active = well fitted inhibition curve with a large enough effect; inconclusive = small, poorly fitted or top-dose-only effect, or another doubt; inactive = no such curve, though single readings can be large or run the other way. Potencies beside an inconclusive call are fits to weak or partial responses and may not hold up.

target: Lysosomal alpha-glucosidase (Homo sapiens) (UniProt P10253); assay: qHTS Assay for Inhibitors and Activators of Human alpha-Glucosidase Cleavage of Glycogen; details: recombinant GAA, glycogen substrate, Amplex Red glucose oxidase fluorescence; series mostly up to 76.4 µM
Procedure, shortened: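 qHTS, 1536-well; enzyme 4 nM final; cpd up to 77 uM; substrate bovine liver glycogen 30 ug; 50 mM citrate/phosphate pH 5.0, 0.01% Tween-20; 37 C, 40 min; Amplex Red detection 45 min RT; Hill fit → AC50.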
Potency is the fitted concentration of half-maximal effect.

Structure (SMILES)	Potency
O=C(O)c1ccccc1N/N=C\c1ccnc2ccccc12	inconclusive: 19.8 µM [inhibitor, partial curve, poor fit]
CCn1c(-c2cc(-c3cccc(OC)c3)nc3ccccc23)n[nH]c1=S	inconclusive: 50.1 µM [inhibitor, single point]
Cc1c2cc(O)c(=O)cc-2oc2cc(O)c(O)cc12	inconclusive: 12.6 µM [inhibitor, partial curve] and inconclusive: 31.4 µM [inhibitor, single point]
CCCCCCn1c(=O)c(Cc2ccccc2)c(O)c2ccccc21	inactive
Cc1nn(CC(=O)Nc2ccc3c(c2)nc2n3CCN(C3CCCCC3)C2)c(=O)c2ccccc12	inconclusive: 28 µM [activator, partial curve]
NNC(=S)NCc1ccc2c(c1)OCO2	inconclusive: 2.8 µM [inhibitor, full curve, poor fit]
COc1ccc(/C=C/c2nc(C#N)c(NCc3ccc(C)cc3)o2)cc1OC	inconclusive: 35.5 µM [inhibitor, single point]
COc1ccc(Nc2c(-c3ccc(OC)cc3)nc3cnccn23)cc1	inconclusive: 4.47 µM [inhibitor, full curve]
Nc1nc(-c2ccccc2)c(N=Nc2ccc(Cl)cc2)s1	inactive
CCCN(C(=O)CCc1nc(-c2ccc(C)cc2)no1)c1ccc(OCC)cc1	inactive
CC(=O)N1CCN(c2ccc(NC(=O)C(c3ccccc3)c3ccccc3)cc2)CC1	inactive
COc1ccc(S(=O)(=O)N2CCN(CC(=O)c3ccc(O)c(O)c3)CC2)cc1	active: 10 µM
CC(C)N1C(=O)CC(Nc2cccc3cccc(N)c23)C1=O (stereo not drawn)	inconclusive: 5.01 µM [inhibitor, full curve]
Cc1csc2ncnc(NNC(=O)c3ccc(Cl)cc3)c12	inconclusive: 12.6 µM [inhibitor, partial curve]
Cc1ccc2nc(-c3c[nH]c4ccccc34)c(Nc3ccccc3C)n2c1	inconclusive: 15.8 µM [inhibitor, partial curve]
COc1ccc(N/C(C)=C/C(=O)c2ccccc2)cc1	inactive
NNC(=O)CNC(c1ccccc1)c1cc(Br)ccc1N (stereo not drawn)	inconclusive: 22.4 µM [inhibitor, partial curve]
C/C(=N\NC(=O)c1ccc(C)cc1C)c1ccc2c(c1)Nc1ccccc1S2	inconclusive: 31.6 µM [inhibitor, single point]
Cc1nc2nc(NC(=O)C(C)(C)C)[nH]n2c(=O)c1Cc1ccccc1	inactive
Cc1ccc(-c2nc3nc(C)cc(C)n3c2Nc2ccc3c(c2)OCCO3)cc1	inconclusive: 5.62 µM [inhibitor, full curve]
CN1C(=S)SC(N(O)C(=O)Nc2ccc(Cl)c(Cl)c2)C1(C)C (stereo not drawn)	inconclusive: 15.8 µM [inhibitor, partial curve]
O=C1NN(c2ccccc2)C(=O)/C1=C\c1cccc(OC(=O)c2cccs2)c1	active: 20 µM

Structure (SMILES)	Potency
Cc1c(Cl)cccc1N1C(N)=C(C#N)C(c2cc(CN3CCOCC3)cs2)C2=C1CCCC2=O (stereo not drawn)	inactive
CC(C)C(=O)NNc1ccccc1	inconclusive: 6.31 µM [inhibitor, full curve]
CCOc1ccc(S(=O)(=O)Nc2cc(Sc3ncn[nH]3)c3oc(=O)sc3c2)cc1	inconclusive: 25.1 µM [inhibitor, partial curve]
COc1cc(/C=C/C(=O)OCc2cn3cc(Cl)ccc3n2)ccc1O	inconclusive: 25.1 µM [inhibitor, partial curve, poor fit]
CCCOC(=O)/C(=C\C=C\c1ccco1)NC(=O)c1ccccc1	inconclusive: 39.5 µM [inhibitor, single point]
COC(=O)Cn1nc(-c2ccccc2)n(-c2ccccc2)c1=S	inconclusive: 22.4 µM [inhibitor, single point]
Cc1nc(NN)c2c3c(sc2n1)COC(C)(C)C3	inconclusive: 50.1 µM [inhibitor, single point]
Cc1cc2sc3ccccc3c(=O)c2c(C)c1O	inconclusive: 6.26 µM [inhibitor, full curve, poor fit]
COc1cc(/C=C/CN2CCC(CO)(CC3CCCCO3)CC2)ccc1O (stereo not drawn)	inconclusive: 11.2 µM [inhibitor, partial curve]
Nc1cc(C(=O)O)ccc1Nc1ccccc1	active: 12.5 µM
Cc1c(NC2(C#N)CCCCC2)c(=O)n(-c2ccccc2)n1C	inconclusive: 14.1 µM [inhibitor, partial curve]
C=CCNC(=S)NNC(=O)c1cccnc1	inconclusive: 11.2 µM [inhibitor, partial curve, poor fit]
NNc1nc2cc3c(cc2s1)OCCO3	inconclusive: 5.01 µM [inhibitor, full curve, poor fit]
S=C(NNC(=S)NC1CC2C=CC1C2)NC1CC2C=CC1C2 (stereo not drawn)	inconclusive: 6.26 µM [inhibitor, partial curve]
COCc1[nH][nH]c(=O)c1/C=N/N1CCOCC1	inconclusive: 28.2 µM [inhibitor, partial curve]
CCCCCC(O)CCC(=O)NNC1=CC(=O)CC(C)(C)C1 (stereo not drawn)	inconclusive: 17.6 µM [inhibitor, single point]
[O-][n+]1c2c(c3c4non(O)c4ccc31)CCCC2	inconclusive: 28.2 µM [inhibitor, partial curve]
COc1cc(/C=C/C(=O)OCC(=O)Nc2c(C)n(C)n(-c3ccccc3)c2=O)ccc1O	inconclusive: 15.8 µM [inhibitor, partial curve]
COc1ccc(/C=N/Nc2cn[nH]c(=O)c2Cl)cc1	inconclusive: 7.08 µM [inhibitor, partial curve]
COc1ccc(-n2nnnc2SCc2nc3ccccc3s2)cc1	inconclusive: 100 µM [inhibitor, partial curve, poor fit]
CCn1c(C)nc2cc(C(=O)NNC(=S)NC(=O)c3ccccc3)ccc21	inconclusive: 35.5 µM [inhibitor, partial curve]
